# The other results are listed elsewhere or left out.
# Legend:
# Test in all cases: glycan array binding signal (z-score within array); higher = stronger binding
# Conditions in all cases: glycan notation: IUPAC condensed, linker removed
# [1] = molecular target: Fuc(a1-2)Gal6S(b1-3)GlcNAc
# Procedure, shortened: (§1)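 From the Consortium for Functional Glycomics database, 3228 arrays were curated, keeping only those whose protein sequence was available. Binding is given as a within-array Z-score averaged across arrays sharing a protein sequence and across linkers. Negative Z-scores can be read as non-binding.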
# [2] = molecular target: Fuc(a1-2)Gal6S(b1-3)GlcNAc6S
# Procedure, shortened: as §1
# [3] = molecular target: Fuc(a1-2)Gal6S(b1-4)Glc
# Procedure, shortened: as §1
# [4] = molecular target: Fuc(a1-2)Gal6S(b1-4)Glc6S
# Procedure, shortened: as §1
# [5] = molecular target: Fuc(a1-2)[Gal(a1-3)]Gal
# Procedure, shortened: as §1
# [6] = molecular target: Fuc(a1-2)[Gal(a1-3)]Gal(b1-3)GalNAc
# Procedure, shortened: as §1
# [7] = molecular target: Fuc(a1-2)[Gal(a1-3)]Gal(b1-3)GalNAc(b1-3)Gal(a1-4)Gal(b1-4)Glc
# Procedure, shortened: as §1
# [8] = molecular target: Fuc(a1-2)[Gal(a1-3)]Gal(b1-3)GlcNAc
# Procedure, shortened: as §1
# [9] = molecular target: Fuc(a1-2)[Gal(a1-3)]Gal(b1-3)GlcNAc(b1-2)Man(a1-3)[Fuc(a1-2)[Gal(a1-3)]Gal(b1-3)GlcNAc(b1-2)Man(a1-6)]Man(b1-4)GlcNAc(b1-4)GlcNAc
# Procedure, shortened: as §1
# [10] = molecular target: Fuc(a1-2)[Gal(a1-3)]Gal(b1-3)GlcNAc(b1-2)Man(a1-3)[Fuc(a1-2)[Gal(a1-3)]Gal(b1-3)GlcNAc(b1-2)Man(a1-6)]Man(b1-4)GlcNAc(b1-4)[Fuc(a1-6)]GlcNAc
# Procedure, shortened: as §1
# [11] = molecular target: Fuc(a1-2)[Gal(a1-3)]Gal(b1-3)GlcNAc(b1-3)GalNAc
# Procedure, shortened: as §1
# [12] = molecular target: Fuc(a1-2)[Gal(a1-3)]Gal(b1-3)GlcNAc(b1-6)GalNAc
# Procedure, shortened: as §1
# [13] = molecular target: Fuc(a1-2)[Gal(a1-3)]Gal(b1-4)Glc
# Procedure, shortened: as §1
# [14] = molecular target: Fuc(a1-2)[Gal(a1-3)]Gal(b1-4)GlcNAc
# Procedure, shortened: as §1
# [15] = molecular target: Fuc(a1-2)[Gal(a1-3)]Gal(b1-4)GlcNAc(b1-2)Man
# Procedure, shortened: as §1
# [16] = molecular target: Fuc(a1-2)[Gal(a1-3)]Gal(b1-4)GlcNAc(b1-2)Man(a1-3)[Fuc(a1-2)[Gal(a1-3)]Gal(b1-4)GlcNAc(b1-2)Man(a1-6)]Man(b1-4)GlcNAc(b1-4)GlcNAc
# Procedure, shortened: as §1
# [17] = molecular target: Fuc(a1-2)[Gal(a1-3)]Gal(b1-4)GlcNAc(b1-2)Man(a1-3)[Fuc(a1-2)[Gal(a1-3)]Gal(b1-4)GlcNAc(b1-2)Man(a1-6)]Man(b1-4)GlcNAc(b1-4)[Fuc(a1-6)]GlcNAc
# Procedure, shortened: as §1
# [18] = molecular target: Fuc(a1-2)[Gal(a1-3)]Gal(b1-4)GlcNAc(b1-3)GalNAc
# Procedure, shortened: as §1
# [19] = molecular target: Fuc(a1-2)[Gal(a1-3)]Gal(b1-4)GlcNAc(b1-3)[Fuc(a1-2)[Gal(a1-3)]Gal(b1-4)GlcNAc(b1-6)]GalNAc
# Procedure, shortened: as §1
# [20] = molecular target: Fuc(a1-2)[Gal(a1-3)]Gal(b1-4)GlcNAc(b1-6)GalNAc
# Procedure, shortened: as §1
# [21] = molecular target: Fuc(a1-2)[Gal(a1-3)]Gal(b1-4)[Fuc(a1-3)]Glc
# Procedure, shortened: as §1
# [22] = molecular target: Fuc(a1-2)[Gal(a1-3)]Gal(b1-4)[Fuc(a1-3)]GlcNAc
# Procedure, shortened: as §1
# [23] = molecular target: Fuc(a1-2)[Gal(a1-3)]Gal(b1-4)[Fuc(a1-3)]GlcNAc(b1-3)GalNAc
# Procedure, shortened: as §1
# [24] = molecular target: Fuc(a1-2)[Gal(a1-4)]Gal(b1-4)GlcNAc
# Procedure, shortened: as §1
# [25] = molecular target: Fuc(a1-2)[GalNAc(a1-3)]Gal
# Procedure, shortened: as §1
# [26] = molecular target: Fuc(a1-2)[GalNAc(a1-3)]Gal(b1-3)GalNAc(a1-3)[Fuc(a1-2)]Gal(b1-4)GlcNAc
# Procedure, shortened: as §1
# [27] = molecular target: Fuc(a1-2)[GalNAc(a1-3)]Gal(b1-3)GalNAc(b1-3)Gal(a1-4)Gal(b1-4)Glc
# Procedure, shortened: as §1
# [28] = molecular target: Fuc(a1-2)[GalNAc(a1-3)]Gal(b1-3)GlcNAc
# Procedure, shortened: as §1
# [29] = molecular target: Fuc(a1-2)[GalNAc(a1-3)]Gal(b1-3)GlcNAc(b1-2)Man(a1-3)[Fuc(a1-2)[GalNAc(a1-3)]Gal(b1-3)GlcNAc(b1-2)Man(a1-6)]Man(b1-4)GlcNAc(b1-4)GlcNAc
# Procedure, shortened: as §1
# [30] = molecular target: Fuc(a1-2)[GalNAc(a1-3)]Gal(b1-3)GlcNAc(b1-2)Man(a1-3)[Fuc(a1-2)[GalNAc(a1-3)]Gal(b1-3)GlcNAc(b1-2)Man(a1-6)]Man(b1-4)GlcNAc(b1-4)[Fuc(a1-6)]GlcNAc
# Procedure, shortened: as §1
# [31] = molecular target: Fuc(a1-2)[GalNAc(a1-3)]Gal(b1-3)GlcNAc(b1-3)GalNAc
# Procedure, shortened: as §1
# [32] = molecular target: Fuc(a1-2)[GalNAc(a1-3)]Gal(b1-3)GlcNAc(b1-6)GalNAc
# Procedure, shortened: as §1
# [33] = molecular target: Fuc(a1-2)[GalNAc(a1-3)]Gal(b1-4)Glc
# Procedure, shortened: as §1
# [34] = molecular target: Fuc(a1-2)[GalNAc(a1-3)]Gal(b1-4)GlcNAc
# Procedure, shortened: as §1
# [35] = molecular target: Fuc(a1-2)[GalNAc(a1-3)]Gal(b1-4)GlcNAc(b1-2)Man
# Procedure, shortened: as §1
# [36] = molecular target: Fuc(a1-2)[GalNAc(a1-3)]Gal(b1-4)GlcNAc(b1-2)Man(a1-3)[Fuc(a1-2)[GalNAc(a1-3)]Gal(b1-4)GlcNAc(b1-2)Man(a1-6)]Man(b1-4)GlcNAc(b1-4)GlcNAc
# Procedure, shortened: as §1
# [37] = molecular target: Fuc(a1-2)[GalNAc(a1-3)]Gal(b1-4)GlcNAc(b1-2)Man(a1-3)[Fuc(a1-2)[GalNAc(a1-3)]Gal(b1-4)GlcNAc(b1-2)Man(a1-6)]Man(b1-4)GlcNAc(b1-4)[Fuc(a1-6)]GlcNAc
# Procedure, shortened: as §1
# [38] = molecular target: Fuc(a1-2)[GalNAc(a1-3)]Gal(b1-4)GlcNAc(b1-3)Gal(b1-4)GlcNAc
# Procedure, shortened: as §1
# [39] = molecular target: Fuc(a1-2)[GalNAc(a1-3)]Gal(b1-4)GlcNAc(b1-3)Gal(b1-4)GlcNAc(b1-3)Gal(b1-4)GlcNAc
# Procedure, shortened: as §1
# [40] = molecular target: Fuc(a1-2)[GalNAc(a1-3)]Gal(b1-4)GlcNAc(b1-3)GalNAc
# Procedure, shortened: as §1
# [41] = molecular target: Fuc(a1-2)[GalNAc(a1-3)]Gal(b1-4)GlcNAc(b1-3)[Fuc(a1-2)[GalNAc(a1-3)]Gal(b1-4)GlcNAc(b1-6)]GalNAc
# Procedure, shortened: as §1
# [42] = molecular target: Fuc(a1-2)[GalNAc(a1-3)]Gal(b1-4)GlcNAc(b1-6)GalNAc
# Procedure, shortened: as §1
# [43] = molecular target: Fuc(a1-2)[GalNAc(a1-3)]Gal(b1-4)[Fuc(a1-3)]GlcNAc
# Procedure, shortened: as §1
# [44] = molecular target: Fuc(a1-2)[GalNAc(a1-3)]Gal(b1-4)[Fuc(a1-3)]GlcNAc(b1-3)GalNAc
# Procedure, shortened: as §1
# [45] = molecular target: Fuc(a1-2)[GalNAc(a1-4)]Gal(b1-4)GlcNAc
# Procedure, shortened: as §1
binder,measurement,setting,value
"SSR1 (Sclerotium rolfsii), A0A0M3KL30 (protein) TYKITVRVYQTNPDAFFHPVEKTVWKYANGGTWTITDDQHVLTMGGSGTSGTLRFHADNGESFTATFGVHNYKRWCDIVTNLAADETGMVINQQYYSQKNREEARERQLSNYQVKNAKGRNFQIVYTEAEGNDLHANLIIG",glycan array binding signal (z-score),[1],-0.343
same,glycan array binding signal (z-score),[2],-0.331
same,glycan array binding signal (z-score),[3],-0.345
same,glycan array binding signal (z-score),[4],-0.353
same,glycan array binding signal (z-score),[5],-0.331
same,glycan array binding signal (z-score),[6],-0.327
same,glycan array binding signal (z-score),[7],-0.331
same,glycan array binding signal (z-score),[8],-0.313
same,glycan array binding signal (z-score),[9],-0.345
same,glycan array binding signal (z-score),[10],-0.311
same,glycan array binding signal (z-score),[11],-0.334
same,glycan array binding signal (z-score),[12],-0.347
same,glycan array binding signal (z-score),[13],-0.336
same,glycan array binding signal (z-score),[14],-0.332
same,glycan array binding signal (z-score),[15],-0.295
same,glycan array binding signal (z-score),[16],-0.333
same,glycan array binding signal (z-score),[17],-0.34
same,glycan array binding signal (z-score),[18],0.325
same,glycan array binding signal (z-score),[19],-0.325
same,glycan array binding signal (z-score),[20],-0.34
same,glycan array binding signal (z-score),[21],-0.342
same,glycan array binding signal (z-score),[22],-0.326
same,glycan array binding signal (z-score),[23],-0.308
same,glycan array binding signal (z-score),[24],-0.328
same,glycan array binding signal (z-score),[25],0.705
same,glycan array binding signal (z-score),[26],0.844
same,glycan array binding signal (z-score),[27],0.204
same,glycan array binding signal (z-score),[28],0.355
same,glycan array binding signal (z-score),[29],0.338
same,glycan array binding signal (z-score),[30],-0.312
same,glycan array binding signal (z-score),[31],-0.32
same,glycan array binding signal (z-score),[32],-0.202
same,glycan array binding signal (z-score),[33],-0.322
same,glycan array binding signal (z-score),[34],0.001
same,glycan array binding signal (z-score),[35],0.194
same,glycan array binding signal (z-score),[36],0.358
same,glycan array binding signal (z-score),[37],-0.288
same,glycan array binding signal (z-score),[38],0.292
same,glycan array binding signal (z-score),[39],0.332
same,glycan array binding signal (z-score),[40],0.683
same,glycan array binding signal (z-score),[41],0.501
same,glycan array binding signal (z-score),[42],0.463
same,glycan array binding signal (z-score),[43],-0.302
same,glycan array binding signal (z-score),[44],-0.311
same,glycan array binding signal (z-score),[45],-0.325
